The text below walks through data of article PMC12136788.

Sequences and labels used below:
T1: UNK ZnF1-3 (human, UniProt Q9C0B0 31-174)
T1 sequence: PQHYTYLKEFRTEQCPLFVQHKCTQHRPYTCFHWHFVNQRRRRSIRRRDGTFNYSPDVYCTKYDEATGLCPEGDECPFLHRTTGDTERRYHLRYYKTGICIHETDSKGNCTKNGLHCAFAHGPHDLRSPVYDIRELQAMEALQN

B1: chr17:33883638:33883639:-_ENSMUSG00000077450_ENSMUST00000057373|mus_mus|FALSE|FALSE (ssRNA)
RNA: GGGAGUUCUACAGUCCGACGAUCGCAACAGUGCAAGGGCUACAGGGAGAAUAAGAGUUCGAGAGCUGGGGUUUGGCGUAAAUUUUACAAAGUGUAUAAAGAAUCUGUUCUCUACAAUAACAAAAACCAAAGGCUACAAGAGCACAACAGAGGAUUGAGCAUCA
B2: 57906712_57908587_2126_CDS_ENSG00000166986_ENST00000262027|human|control|control (ssRNA)
RNA: GGGAGUUCUACAGUCCGACGAUCAUGGGCCAGCAGGCGCUGAUCAUCAGGGGUGAGCACCAUCUCAGGCACAUAGCCCCCAAAGAACUUAGACACAAACAUCCCAGCUCUGUUGAUGAAGUUGCCCAGGUUGUUAAGCAGCUCCAACAGAGGAUUGAGCAUCA
B3: chr2:228220401:228220402:+_ENSG00000168958_ENST00000354503|hu_mus|FALSE|FALSE (ssRNA)
RNA: GGGAGUUCUACAGUCCGACGAUCUAAUGAAGCUGCAUCUACCACAGUCAUGUCAUCUGAAGCUCCUUCAAUGGCUGCAUCUAGGUUUGAAAUGCCAUACCUGACGUUGUCAUGAUGAGGAUUAGAAGUGGCGGCAGCUGACCCCAACAGAGGAUUGAGCAUCA
B4: chr16:45382771:45382772:-_ENSMUSG00000022661_ENSMUST00000163230|mus_mus|mus_mus_mus_hu_True|98_98 (ssRNA)
RNA: GGGAGUUCUACAGUCCGACGAUCCUGGGUCAUGUUAUGGGCCCAAUGGACAGGGAGGGCAUGCUUCUCAAAAAAUGUGAGCUAUUGUCUAAGACUAACAAUAUUUAUCUAGCUAUAAAAAUAAGUUAAAUGAAUAAGUUAAGACAACAGAGGAUUGAGCAUCA
B5: chr7:75932113:75932114:+_ENSG00000106211_ENST00000248553|hu_hu|hu_hu_hu_mus_False|28_108 (ssRNA)
RNA: GGGAGUUCUACAGUCCGACGAUCCUGCGACCACUCCUCGGGCAACCGGGGCACCCCGAAAGCUUGAUCGAAGAGGCGGCUGUGUGCAGGGUACCAGUCCCGGAAUGCCCAGCUGGGCGGGCUCCGCAGCAGCGAGAAGGGCACCAACAGAGGAUUGAGCAUCA
B6: chr7:54825262:54825263:-_ENSG00000132432_ENST00000352861|hu_hu|hu_hu_hu_mus_False|1_38 (ssRNA)
RNA: GGGAGUUCUACAGUCCGACGAUCCUGCCGGCUGGGCUCCACAAACUGCAUUACCUGAUCCAUGUUUGUUGGAUGGCGGAUUGAGAGCGUAGAGACAACGUAGCACUGAGAGAACCGAGCCCAACGGAACCGGAAGCGGAAUCCCAACAGAGGAUUGAGCAUCA
B7: chr3:41417089:41417090:+_ENSMUSG00000025764_ENSMUST00000026865|mus_hu|FALSE|FALSE (ssRNA)
RNA: GGGAGUUCUACAGUCCGACGAUCAACCAAGGAAGUACCCAUUUGUUUUCUGAAGAAUGCAGAAUGCCACUUCAAGUCCUCUAUCUUGGGAGCAUCAGGGCCAACAGAAGGACUGUUAAACAAAAGCAUGUUUUCCAGUGAGGACAACAGAGGAUUGAGCAUCA
B8: chr19:15981513:15981514:-_ENSMUSG00000024640_ENSMUST00000025542|mus_mus|motif|central (ssRNA)
RNA: GGGAGUUCUACAGUCCGACGAUCCAAAGCUUCGUCUCCUUUGGCGUUGCCAAUGCGAAAUGGGAUGUUCAUCCUGCUUCGGUUCUGGCGCUCCACUGGGCAUACAUAAAAUCCUUGAGAAUUAUCAAUGAUCUCAUAAAUCAUCAACAGAGGAUUGAGCAUCA
B9: chr4:139038490:139038491:+_ENSMUSG00000066036_ENSMUST00000145659|mus_hu|FALSE|FALSE (ssRNA)
RNA: GGGAGUUCUACAGUCCGACGAUCCCUCCGCAAGAUUUCCACACGUGUGGCUCUCCACUGCUCAGGGGGCAGGAUGUGAAGGGCCAAGACUGUGAAAUAGUAGGGCCCGUCCACUUCAAAGGCACUCUCCACCCACUUCUCCUUCAACAGAGGAUUGAGCAUCA
B10: chr14:89307221:89307222:+_ENSG00000165533_ENST00000346301|hu_mus|hu_hu_hu_mus_False|88_98 (ssRNA)
RNA: GGGAGUUCUACAGUCCGACGAUCUCCUGUUUGGUUAGUUCCAGGGAGUUUCAAAGAUGUGCCAGGGCGUGGGACCUGAGCAAUAGCAUUUUCAUCCAGGAUCAUUUCAGCAAUUCCUUCCUGGUCCACAUCAAUUUCAUCUAUCAACAGAGGAUUGAGCAUCA
B11: chr2:73746717:73746718:-_ENSMUSG00000018770_ENSMUST00000018914|mus_mus|FALSE|FALSE (ssRNA)
RNA: GGGAGUUCUACAGUCCGACGAUCCAAGAUCAAGAACGCAACCAUCAAACAAAAGAGACCCAUAGCUUCAGACAAGGCAAAUCCCAGGAUAGCAUAUGAGAACAGCUGCUGCUUCAGUGAAGGGUUUCUGGCAUAACCAAUGAUCAACAGAGGAUUGAGCAUCA
B12: 90438853_90440559_5201_CDS_ENSG00000112159_ENST00000369393|human|control|control (ssRNA)
RNA: GGGAGUUCUACAGUCCGACGAUCAGGUCCCCUUGGUAUAAAAAAUGGAUGAAUUCCCCAAAGGUUAUCUAUUCCAGUGAAUUCUUUGGCCUUCAUUCUGUCAUAAAUCUUCAACUCAUUUUUCUGAUAUUCUGUAAGUCGUACCAACAGAGGAUUGAGCAUCA
B13: chr6:124662746:124662747:+_ENSMUSG00000004264_ENSMUST00000004375|mus_mus|motif|central (ssRNA)
RNA: GGGAGUUCUACAGUCCGACGAUCUUCGGCCAGGAUCGUGUCCUGCUGCACGCCACCAAUACGAUUAAAAAAGAUGGCUCGGUGACCGCCUUCCACGGUGAACACGGAUUCGCGGACGCCGUAGGCCACCGCCCCGGCCCCCAGCAACAGAGGAUUGAGCAUCA
B14: chr14:102036314:102036315:-_ENSMUSG00000075486_ENSMUST00000100339|mus_hu|FALSE|FALSE (ssRNA)
RNA: GGGAGUUCUACAGUCCGACGAUCCUUAAGAGAUCUGCAAGUGUCUGAGCUCACAGCCAUACCCAGUUUCCACUGAAAAUCUACAAGCUGGUUGGUGACAUCGGACUUAGCAUCCAGCGGCGGCUCGCUGGACGCCUCCAUGGGCAACAGAGGAUUGAGCAUCA
B15: chr2:91389038:91389039:+_ENSMUSG00000040549_ENSMUST00000099716|mus_hu|motif|central (ssRNA)
RNA: GGGAGUUCUACAGUCCGACGAUCUAAUCCUUUCAAUUGAACCACUGCAUUGGAAUCAGUGACAAAUUUUUUGAUCAAUCCGGAAAAUUUGGACCACUCUGGGCUCUUUUCAUCCUUUAUUUUCUGGAAGAUCUUCAGGGCCUCCAACAGAGGAUUGAGCAUCA
B16: chr11:77336104:77336105:-_ENSG00000074201_ENST00000525064|hu_mus|hu_hu_hu_mus_False|8_18 (ssRNA)
RNA: GGGAGUUCUACAGUCCGACGAUCCUCACACAUUGCUGUGAACAUCGCCUCCAAUGCUGACUUAUCACUGGGCACAAAUCGAAAUUCAGAAAUGGGUUCAACAUCAUCAUUGUCUUCUUCCUCUUCUUCAUCAGCAAGUUCUUUCAACAGAGGAUUGAGCAUCA
B17: chr11:20626769:20626770:-_ENSMUSG00000049659_ENSMUST00000146722|mus_mus|FALSE|FALSE (ssRNA)
RNA: GGGAGUUCUACAGUCCGACGAUCGACGCAGACCUGAUGUUCUCUUUCAGUGUUCCCCGUAUCCUCAAAGCUUCCAUCCAAAGUCACUUCUUUCACACAGUUUAGUUCCUUGACUCUGGGGCCUUUGCUGUUUCCCUGAAUGGUCAACAGAGGAUUGAGCAUCA
B18: chr16:67133199:67133200:+_ENSG00000067955_ENST00000412916|hu_mus|FALSE|FALSE (ssRNA)
RNA: GGGAGUUCUACAGUCCGACGAUCUAUUCUAGGUUUAUAGCUGGAAAAAAUAACUGCAAACACAUCUUCAUUUGUAAAAUGGUGCAGAAUACAAAAACACGAAAUGAUGUAGAGAAAACAAACAAAAACCAAGAACCCUUAUCUCAACAGAGGAUUGAGCAUCA
B19: chr20:32439910:32439911:+_ENSG00000101421_ENST00000217402|hu_hu|motif|central (ssRNA)
RNA: GGGAGUUCUACAGUCCGACGAUCAGGGACUGUUUCGGGUCCACUGAUUUCCAGCAAAUUCUUGUCUAGUUCCUCCUGUUCGGGUUCUUCUAAUUCCGCCAUGAGCUCAUCCUCGUCAAACUCUUCUCCAAACCCUACAGGUUUCAACAGAGGAUUGAGCAUCA
B20: chr4:56883625:56883626:-_ENSMUSG00000055296_ENSMUST00000068792|mus_mus|FALSE|FALSE (ssRNA)
RNA: GGGAGUUCUACAGUCCGACGAUCUAUAGGCGUGCGCCACCACGCCCGGGUUUAAAAUGUGUAGACCAGGCUGGCCUCGAACUCGCGAUCCUCCUGCUUCUGCCUCCUUCAGCAAAUCCUACUGGCGUGCGCCACCACAACCAGCAACAGAGGAUUGAGCAUCA
B21: 118482981_118483101_2867_CDS_ENSG00000172869_ENST00000311085|human|control|control (ssRNA)
RNA: GGGAGUUCUACAGUCCGACGAUCCAUUUCUGAAAACAGAGUCAACCUGCUGGUACUCUGGAGAUUUGCUCUGCAAGCCUGAUACUUUUGUGAAAAAGGAGAUAGGAUCUUCUCUGGAGAAGAAGAAUAAUGUUCUUCUGGCUGCAACAGAGGAUUGAGCAUCA
B22: chr17:60770872:60770873:+_ENSG00000011028_ENST00000303375|hu_hu|hu_hu_hu_mus_True|28_28 (ssRNA)
RNA: GGGAGUUCUACAGUCCGACGAUCUCUUUAAAAAAAAAAAAAAAAAGACAAACAAUAAUAGCACAUUUCGAGAAUCAAGAACUACAAUAGAGGGUCCGCUUUGAGUUGUCCAUGUUCUCGUCCUGCACUGGGACACGGGGACUGCAACAGAGGAUUGAGCAUCA

This is one part of the list.

In the assay the target is T1, UNK ZnF1-3. Briefly: nsRBNS (natural sequence RNA bind-n-seq); RBNS binding buffer (assumed for nsRBNS): 25 mM Tris pH 7.5, 150 mM KCl, 3 mM MgCl2, 0.01% Triton X-100, 500 ug/ml BSA, 20 U/ml SUPERase-In, 4 C; UNK is unkempt and MSI1 is Musashi-1; names of the RNAs are library labels; protein concentration not given here; high values mean tight binding.
For B1, the binding signal stood at 2.05 enrichment R.

B2 had a binding signal of 1.33 enrichment R.

The molecule B3 came in with a binding signal of 0.738 enrichment R.

In turn, B4 gave a binding signal of 1.31 enrichment R.

Take B5: the binding signal worked out at 0.588 enrichment R.

In turn, B6 gave a binding signal of 1.33 enrichment R.

B7 yielded a binding signal of 1.71 enrichment R.

Turning to B8, the binding signal came to 0.68 enrichment R.

Molecule B9 registered a binding signal of 0.981 enrichment R.

B10 returned a binding signal of 0.874 enrichment R.

Take B11: the binding signal is 1.48 enrichment R.

In turn, B12 displayed a binding signal of 0.892 enrichment R.

As to B13, the binding signal was determined as 0.701 enrichment R.

B14: the binding signal was 1.05 enrichment R.

The molecule B15 returned a binding signal of 0.767 enrichment R.

For the molecule B16, the binding signal is 1.16 enrichment R.

As to B17, the binding signal came to 0.53 enrichment R.

Turning to B18, the binding signal was 1.58 enrichment R.

With B19, the binding signal is 0.384 enrichment R.

As for B20, the binding signal was 0.972 enrichment R.

B21 had a binding signal of 0.885 enrichment R.

The molecule B22 returned a binding signal of 1.99 enrichment R.
